From PMC4336329 (PLoS ONE, 2015)
Screen size: about 310,000 compounds; about 14,000 (4.5%) showed an effect of 50% or more. Effects have a minus sign here. The list shows a part of the results.

target: human ether-à-go-go-related gene (hERG) potassium channel (human, UniProt Q12809); assay: primary screen, population patch clamp on CHO cells stably expressing hERG
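Note: peak tail current of the secondary pulse compared with the same well before compound.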

human ether-à-go-go-related gene (hERG) potassium channel, sequence (Q12809 whole entry, looked up): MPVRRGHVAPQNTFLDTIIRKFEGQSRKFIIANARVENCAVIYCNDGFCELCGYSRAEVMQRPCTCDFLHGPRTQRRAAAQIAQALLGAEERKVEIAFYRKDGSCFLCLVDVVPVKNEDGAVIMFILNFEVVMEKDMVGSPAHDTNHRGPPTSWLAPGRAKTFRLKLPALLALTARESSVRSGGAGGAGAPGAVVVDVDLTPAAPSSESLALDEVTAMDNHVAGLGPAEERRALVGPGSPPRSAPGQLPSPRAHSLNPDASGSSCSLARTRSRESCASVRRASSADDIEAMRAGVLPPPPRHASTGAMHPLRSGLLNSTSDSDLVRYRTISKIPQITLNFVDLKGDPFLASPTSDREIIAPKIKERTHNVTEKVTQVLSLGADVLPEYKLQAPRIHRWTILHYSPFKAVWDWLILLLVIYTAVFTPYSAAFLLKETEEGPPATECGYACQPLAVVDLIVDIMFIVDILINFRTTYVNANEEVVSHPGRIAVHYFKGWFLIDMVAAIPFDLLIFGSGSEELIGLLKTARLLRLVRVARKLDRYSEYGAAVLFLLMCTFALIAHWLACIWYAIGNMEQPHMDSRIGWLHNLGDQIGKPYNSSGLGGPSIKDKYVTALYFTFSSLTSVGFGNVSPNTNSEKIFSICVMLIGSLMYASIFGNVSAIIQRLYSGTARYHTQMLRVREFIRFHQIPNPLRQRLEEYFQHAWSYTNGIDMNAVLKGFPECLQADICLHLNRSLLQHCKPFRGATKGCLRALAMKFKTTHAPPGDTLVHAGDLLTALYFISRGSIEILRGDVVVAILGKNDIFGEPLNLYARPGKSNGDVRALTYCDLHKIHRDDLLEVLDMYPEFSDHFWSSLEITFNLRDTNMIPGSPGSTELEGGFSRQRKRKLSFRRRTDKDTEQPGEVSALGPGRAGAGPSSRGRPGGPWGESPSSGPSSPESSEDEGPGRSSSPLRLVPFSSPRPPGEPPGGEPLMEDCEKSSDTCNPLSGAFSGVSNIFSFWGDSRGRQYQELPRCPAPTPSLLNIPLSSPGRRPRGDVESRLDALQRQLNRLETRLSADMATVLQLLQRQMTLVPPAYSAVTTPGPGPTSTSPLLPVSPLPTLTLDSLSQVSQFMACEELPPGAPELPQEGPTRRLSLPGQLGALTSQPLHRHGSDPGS

| Compound | hERG current change (%, negative = inhibition) at 10uM [%] |
| --- | --- |
| COc1ccc(NC(=O)CN2C(=O)C(c3ccccc3)=NC23CCCCCC3)cc1OC | -2.36 |
| COc1cc(-c2csc(C)n2)ccc1O | 8.67 |
| CC(=O)n1cc([C@@H]2C=C(C(=O)Nc3ccccc3)O[C@H](OCCCCO)C2)c2ccccc21 | -54.5 |
| COc1ccc(O)c(C(=O)c2cnc3c(c2)CN(C)C(=O)N3)c1 | 5.34 |
| O=C(COc1ccccc1)NNC(=O)c1ccc(Cl)cc1 | 6.08 |
| CC(=O)n1cc(/C=C2/N=C(c3ccccc3)OC2=O)c2ccccc21 | 7.37 |
| COc1ccc([N+](=O)[O-])cc1NC(=O)C(C)OC(=O)c1ccccc1C(=O)c1ccc(Cl)cc1 (stereo not shown) | 1.68 |
| COc1ccccc1N1CCN(C(=O)Oc2ccccc2)CC1 | 1.61 |
| CC(C)Cn1c(N)c(C(=O)COC(=O)c2ccc(F)cc2)c(=O)n(C)c1=O | 17.1 |
| Cc1cccc(C)c1NC(=O)c1ccc([N+](=O)[O-])s1 | -8.67 |
| CC1(C(=O)OCC(=O)NNC(=O)COc2ccc(Cl)cc2)CC1(Cl)Cl (stereo not shown) | -20.3 |
| NS(=O)(=O)c1ccc(CCNC(=O)CSc2ccc(Cl)cc2)cc1 | -8.77 |
| COc1ccc(CN2CCN(C(=O)COc3ccc4ccccc4c3)CC2)c(OC)c1 | -52.6 |
| COc1ccc(-c2c([C@H]3[C@H]4C=CC[C@@H](C)[C@@H]4C(=O)N3Cc3ccccc3)ccc3ccccc23)cc1 | 20.8 |
| Cn1nc(Cc2n[nH]c(=S)n2C)c2ccccc2c1=O | 23.9 |
| O=C(NC1CCCc2ccccc21)c1cc(S(=O)(=O)N2CCOCC2)ccc1F (stereo not shown) | 6.48 |
| COc1ccc(CCNC(=O)CN2C(=O)COc3ccc(S(=O)(=O)N4CCOCC4)cc32)cc1OC | 16.6 |
| Cc1ccccc1CN1CCN(Cc2ccccc2)CC1.O=C(O)C(=O)O | -7.72 |
| CCCCN(CCCC)CCNC(=O)c1cn(C)c2ccc(S(=O)(=O)N(C)C3CCCCC3)cc2c1=O | -76.7 |
| O=C1NCC(c2ccccc2)C1C(=O)N/N=C\c1ccc(-c2ccc(Cl)c(Cl)c2)o1 (stereo not shown) | 20.9 |
| COc1cc2c(cc1OC)C(CC(=O)O)N(C(=O)CC1CCCC1)CC2 (stereo not shown) | 20.6 |
| Cn1nnnc1SCC(=O)NCc1cccc(C(=O)O)c1 | -9.75 |

| Compound | hERG current change (%, negative = inhibition) at 10uM [%] |
| --- | --- |
| CCCCCc1ccc(-c2cn(CCc3c[nH]c4ccccc34)nn2)cc1 | -3.24 |
| COc1ccc(NC(=O)c2cc(Br)c(Br)s2)cn1 | -9.05 |
| Cc1cccc(N(NC(=O)C(C)(C)O)C(=O)c2ccccc2)c1 | 8.44 |
| O=C(Nc1ccccc1)N1CCN(Cc2ccc3c(c2)OCO3)CC1 | -26.1 |
| CC(C)Cn1c(N)c(C(=O)COC(=O)C2CC(=O)N(c3ccc4c(c3)OCCO4)C2)c(=O)n(C)c1=O (stereo not shown) | -52.6 |
| COc1ccc(NC(=O)CSc2nnc(-c3cccnc3)s2)cc1 | -5.25 |
| COCC(=O)OCC(=O)Nc1ccccc1-c1ccccc1 | 39.1 |
| CCCn1c(SCC(=O)NC)nc2sc3c(c2c1=O)CCC3 | -11.4 |
| COC(=O)C1CCCCN1C(=O)c1ccc2oc(Cc3ccccc3)nc2c1 (stereo not shown) | -2.29 |
| Cc1cc(NC(=O)CSCC(=O)Nc2cc(C(F)(F)F)ccc2N2CCOCC2)no1 | 5.68 |
| CC(C)C(NC(=O)Cc1ccccc1[N+](=O)[O-])C(C)C | -4.45 |
| C=C(C)CN(CC)C(=O)CCc1nnc(CCc2c[nH]c3ccccc23)o1 | 2.13 |
| CCOC(=O)C1(O)CC(C)=NN1C(=O)c1cccc(Cl)c1 (stereo not shown) | 11.5 |
| Cc1cc(C)c(C)c(S(=O)(=O)Nc2ccc(C(N)=O)cc2)c1C | 10.3 |
| CC(C)C(NC(=O)C1CCC(C(C)(C)C)CC1)C(=O)NCc1cccnc1 (stereo not shown) | -12.2 |
| O=C(O)CC(CC(=O)Nc1ccc(N2CCOCC2)cc1)c1ccccc1 (stereo not shown) | 12.7 |
| CC(C)(C)c1ccc(NC(=O)CNC2CCCc3ccccc32)cc1.Cl (stereo not shown) | 2.24 |
| Cc1nnc(Sc2cc(C(=O)NCc3ccco3)c3ccccc3n2)s1 | -33.6 |
| Cc1cc(C)nc(Oc2ccc(Br)cc2)n1 | 9.09 |
| COc1ccc(C)cc1Cn1c(S(C)(=O)=O)nc2ccccc21 | -9.64 |
| COc1cc(-c2nc(-c3ccccc3)c(-c3cc([N+](=O)[O-])ccc3C)[nH]2)cc(OC)c1OC | 1.42 |
| Nc1ccc(-c2c3ccccc3nc3ccccc23)cc1 | 8 |

| Compound | hERG current change (%, negative = inhibition) at 10uM [%] |
| --- | --- |
| CS(=O)(=O)N(Cc1ccc(Cl)cc1)c1ccc(C(=O)NCC2CCCO2)cc1 (stereo not shown) | -46.7 |
| CC12CN(C(=O)c3ccccc3)C3(C#N)CC1CCC23C (stereo not shown) | 0.751 |
| Cc1ccc(N=Nc2ccc(C)cc2NC(=O)Nc2ccccc2F)cc1 | 17.3 |
| COc1ccc(NC2=CC(c3ccccc3)N(c3ccc(OC)cc3)C2=O)cc1 (stereo not shown) | 11.2 |
| Cc1ccccc1OCCC(=O)N1CCN(S(=O)(=O)c2ccc(F)cc2)CC1 | -13.7 |
| CC(=O)c1sc(-c2ccc(Cl)cc2)nc1C | 12.7 |
| CCN(CC)C(=O)/C(=C\c1ccncc1)NC(=O)c1ccccc1 | -5.95 |
| Cc1cc(C(=O)COC(=O)c2ccc(Br)o2)c(C)n1C | 13.9 |
| COc1ccc(NC(=O)CSc2nc3ncccc3[nH]2)cc1OC | 9.75 |
| COc1ccc(C)cc1NC(=O)CSc1nnc(-c2cc(C)[nH]n2)n1N | 2.92 |
| Cc1nc2c(C(=O)NCCc3ccccc3Cl)c[nH]n2c(=O)c1Cl | 3.14 |
| CCOC(=O)[C@H]1[C@H]2COc3ccc(C)cc3[C@@H]2N2C(=O)c3cc(F)ccc3NC(=O)[C@@]12C | -18.5 |
| C=CCn1c(CCc2ccc(OC(C)C)cc2)n[nH]c1=S | -14.2 |
| Cc1nc2c(C)cccc2c2c1COC2 | 7.98 |
| COC(=O)CNC(=O)CN1C(=O)N(c2ccc(Cl)cc2)C(N(O)C(=O)Nc2ccc(Cl)cc2)C1(C)C (stereo not shown) | -5.29 |
| O=C(NC(=O)c1ccc(Cl)cc1)Nc1ccc(-c2cnco2)cc1 | 9.76 |
| Cn1c(SCC(=O)NC2CC2)nnc1-c1ccco1 | 9.16 |
| CCn1cc(C(=O)NCCCN2CCCCCC2)c(=O)c2cc(S(=O)(=O)N3CCc4ccccc4C3)ccc21 | -77.7 |
| O=C(NCCN1CCOCC1)c1ccccc1Oc1ccccc1 | -15.7 |
| CCc1ccc(NC(=O)CCNS(=O)(=O)c2cccc3nonc23)cc1 | -4.75 |
| NC(=O)c1ccc(NC(=O)CN2CCOCC2)cc1 | 17.9 |
| Cl.O=S(=O)(NCCN1CCOCC1)c1ccc(F)c(Cl)c1 | 13.5 |

| Compound | hERG current change (%, negative = inhibition) at 10uM [%] |
| --- | --- |
| Cn1c(=O)c2c(ncn2CC(=O)N2CCN(c3ccc([N+](=O)[O-])cc3)CC2)n(C)c1=O | -72 |
| CC(C)[C@@H](COc1ccccc1)N1CCN(Cc2ccccc2)CCC1=O | -29.6 |
| O=C(C1=C(O)C(=O)N(CCN2CCOCC2)C1c1cccc(Br)c1)c1cccs1 (stereo not shown) | 7.7 |
| Nc1sc2c(c1C(=O)c1ccccc1)CCCC2 | -14.3 |
| COc1ccc(C(=O)c2no[n+]([O-])c2C(=O)c2ccc(OC)cc2)cc1 | -41.7 |
| Cc1ccccc1-c1nc2ccccc2c(=O)n1/N=C/c1ccccc1[N+](=O)[O-] | 10.6 |
| Cc1ccc(/C=N/N2CCN(c3ccccn3)CC2)cc1 | 2.68 |
| O=c1oc2c3c(nn2c2ccccc12)CCCC3 | 2.4 |
| COC(=O)c1cc(NC(=O)CC2Oc3ccccc3NC2=O)cc(C(=O)OC)c1 (stereo not shown) | 16.4 |
| CCOC(=O)CSc1nc2ccc(N3CCOCC3)cc2c(=O)n1Cc1ccccc1 | -20.5 |
| CNC(=O)c1nc(C)n(-c2ccc(Cl)cc2Cl)n1 | 1.69 |
| Cc1cccc(-c2ccc3ncnc(NCc4cccs4)c3c2)c1 | -8.55 |
| O=C(COC(=O)c1ccc(O)cc1)Nc1cccc(S(=O)(=O)NC2=NCCC2)c1 | 21.8 |
| Cc1ccc(CN(C(=O)c2cc(=O)c3cc(Cl)c(C)cc3o2)C2CCS(=O)(=O)C2)cc1 (stereo not shown) | -13.7 |
| CCOc1ccc(C(NC(C)=O)c2ccc(OC)c(OC)c2)cc1 (stereo not shown) | 2.3 |
| O=C(O)CCc1ccc(-c2ccccc2)n1NC(=O)c1ccco1 | 18.9 |
| O=C(CCCc1cccs1)Nc1nc(-c2ccc(F)cc2)cs1 | 19.8 |
| O=C(O)c1ccc(NCc2nc3ccccc3n2Cc2ccccc2F)cc1 | 10.9 |
| CC(=O)OCC1OC(OCc2cn(C[C@H]3CC[C@@H]([C@@H]4CC[C@H](Cn5cc(COC6OC(COC(C)=O)C(OC(C)=O)C(OC(C)=O)C6OC(C)=O)nn5)O4)O3)nn2)C(OC(C)=O)C(OC(C)=O)C1OC(C)=O (stereo partly shown) | 0.857 |
